Here are results for 84 molecules from paper PMC4336329 (PLoS ONE, 2015).

About 2,200 (0.71%) of roughly 310,000 compounds showed an effect of 50% or more. The effect is printed as a negative number. The list shows a part of the results.

For this test, the target named is human ether-à-go-go-related gene (hERG) potassium channel (human, UniProt Q12809). Nature of the test: primary screen, population patch clamp on CHO cells stably expressing hERG.
Sequence of human ether-à-go-go-related gene (hERG) potassium channel (Q12809 whole entry, looked up): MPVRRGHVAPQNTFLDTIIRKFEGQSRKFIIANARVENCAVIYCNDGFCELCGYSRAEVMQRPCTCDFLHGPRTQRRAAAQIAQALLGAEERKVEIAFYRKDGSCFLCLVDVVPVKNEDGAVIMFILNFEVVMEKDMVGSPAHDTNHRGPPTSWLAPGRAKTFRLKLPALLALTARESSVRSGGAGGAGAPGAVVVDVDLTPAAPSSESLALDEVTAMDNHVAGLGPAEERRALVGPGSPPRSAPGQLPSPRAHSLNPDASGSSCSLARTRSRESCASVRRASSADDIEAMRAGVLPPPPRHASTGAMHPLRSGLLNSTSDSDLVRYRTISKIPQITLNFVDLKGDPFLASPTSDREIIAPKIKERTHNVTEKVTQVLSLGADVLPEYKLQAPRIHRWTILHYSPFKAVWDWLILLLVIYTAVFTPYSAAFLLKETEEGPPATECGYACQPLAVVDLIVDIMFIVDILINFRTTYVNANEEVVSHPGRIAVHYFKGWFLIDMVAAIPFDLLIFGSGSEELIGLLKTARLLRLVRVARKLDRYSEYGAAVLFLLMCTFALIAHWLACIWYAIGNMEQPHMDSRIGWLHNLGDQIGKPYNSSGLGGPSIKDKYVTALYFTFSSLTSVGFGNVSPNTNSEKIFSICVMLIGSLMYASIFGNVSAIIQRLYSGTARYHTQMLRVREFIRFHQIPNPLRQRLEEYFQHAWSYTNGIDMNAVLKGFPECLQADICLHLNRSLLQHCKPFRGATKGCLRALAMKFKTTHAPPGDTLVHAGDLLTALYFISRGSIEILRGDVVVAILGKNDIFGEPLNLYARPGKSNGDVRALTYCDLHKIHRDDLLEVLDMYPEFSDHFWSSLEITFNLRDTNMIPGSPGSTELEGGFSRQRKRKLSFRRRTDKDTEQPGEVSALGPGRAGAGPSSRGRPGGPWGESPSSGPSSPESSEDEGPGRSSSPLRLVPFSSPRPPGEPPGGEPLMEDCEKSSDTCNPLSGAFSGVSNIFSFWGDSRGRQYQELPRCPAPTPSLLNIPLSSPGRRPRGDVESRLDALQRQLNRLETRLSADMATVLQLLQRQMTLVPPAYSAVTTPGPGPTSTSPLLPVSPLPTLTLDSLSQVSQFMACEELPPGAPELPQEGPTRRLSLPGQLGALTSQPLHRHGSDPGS
Turning to `COc1ccc(CN2C(=O)CC(C(=O)NCCc3ccc(S(N)(=O)=O)cc3)SC2=Nc2ccccc2)cc1` (stereo not drawn), the “hERG current change (%, negative = inhibition) at 1uM” value is 17.9%. Next, `COC(=O)c1c(NC(=O)COC(=O)c2ccccc2O)sc2c1CCCCC2`: 5.97%; `CC(=O)N1CCCc2cc(S(=O)(=O)NC(C(=O)NCc3ccc(C)cc3)C(C)C)ccc21` (stereo not drawn): 3.08%; `Cn1nnnc1SCC(=O)Nc1cc(C(F)(F)F)ccc1N1CCOCC1`: -0.0845%. For the molecule `COc1ccccc1N1CCN(C(=O)CSc2nnc(-c3ccoc3C)o2)CC1`, the “hERG current change (%, negative = inhibition) at 1uM” value was determined as 0.342%. Next, `COc1ccc(C)cc1S(=O)(=O)N1CCC2(CC1)OCCN2S(=O)(=O)c1ccccc1`: 10.7%; `CN(C)CCN(C(=O)C1CCCCC1)c1nc2cc3c(cc2s1)OCO3.Cl`: 14.3%. As to `Cc1ccccc1-c1nc(CS(=O)(=O)CC(=O)NCCCN2CCN(C)CC2)c(C)o1`, the “hERG current change (%, negative = inhibition) at 1uM” value turned out to be 4.32%.

Regarding `COCCNC(=O)CC(=O)N/N=C/c1cccc(C(=O)OC)c1`, the “hERG current change (%, negative = inhibition) at 1uM” value was determined as 14.5%. Regarding `CCOc1ccc(NC(=O)CN(C)C(=O)c2cccnc2Sc2ccccc2Cl)cc1OCC`, the “hERG current change (%, negative = inhibition) at 1uM” value was 11.8%. As to `Cc1cs/c(=N\N=C\c2ccccc2)n1Cc1ccco1`, the “hERG current change (%, negative = inhibition) at 1uM” value is listed as 14.3%. Turning to `O=C(c1ccccc1NS(=O)(=O)c1cccc([N+](=O)[O-])c1)N1CCOCC1`, the “hERG current change (%, negative = inhibition) at 1uM” value is reported as 0.676%. Take `Cc1ccc(C(=O)COC(=O)C(C)N2C(=O)C3C4C=CC(C4)C3C2=O)cc1` (stereo not drawn): the “hERG current change (%, negative = inhibition) at 1uM” value worked out at 6.8%.

For the molecule `CCCN(CCC)CCCNS(=O)(=O)c1ccc2c(c1)oc(=O)n2C`, the “hERG current change (%, negative = inhibition) at 1uM” value was 8.77%. Regarding `O=C(COc1ccccc1F)NNC(=O)c1cccc(-n2cccc2)c1`, the “hERG current change (%, negative = inhibition) at 1uM” value amounted to 3.62%. For the molecule `CCC(=O)c1ccc(OCC(O)CN2CCN(c3ccccn3)CC2)cc1` (stereo not drawn), the “hERG current change (%, negative = inhibition) at 1uM” value amounted to 3.36%. The same measure for `O=C(NC1CC2CCC(C1)N2Cc1ccccc1)c1ccccc1Br` (stereo not drawn): 0.121%; for `COc1ccccc1NC(=O)c1ccc(COc2ccccc2OC)cc1`: 12.6%. The same measure for `Cc1ccnc2c1NC(=O)c1cccnc1N2C1CC1`: 8.83%. For the molecule `O=C(COC(=O)c1cc([N+](=O)[O-])ccc1N1CCOCC1)NC1CCS(=O)(=O)C1` (stereo not drawn), the “hERG current change (%, negative = inhibition) at 1uM” value came out at 3.3%.

For `COc1cc(/C=C/c2ccc3cccc(OC)c3n2)c(OC(C)=O)c([N+](=O)[O-])c1`, the “hERG current change (%, negative = inhibition) at 1uM” value was found to be 4.9%. Regarding `Cc1nn(-c2ccccc2)c(Cl)c1C1C(C#N)=C(N)Oc2c1c(=O)oc1ccccc21` (stereo not drawn), the “hERG current change (%, negative = inhibition) at 1uM” value amounted to 17.4%. For `O=C(CSc1ncccn1)NCCC1=CCCCC1`, the “hERG current change (%, negative = inhibition) at 1uM” value came out at 1.34%. Next, `CCOC(=O)c1cc(=O)cc(C(=O)OCC)o1`: 7.17%; `O=C(c1ccco1)N1CCN(C(=O)C2CCN(S(=O)(=O)c3cnc[nH]3)CC2)CC1`: 13.4%.

In the case of `CC1CN(S(=O)(=O)c2cccc(C(=O)Nc3ccccc3N3CCCC3)c2)CC(C)O1` (stereo not drawn), the “hERG current change (%, negative = inhibition) at 1uM” value is -1.77%. `COc1ccc(S(=O)(=O)Nc2cccc(-c3ccc(N4CCCCCC4)nn3)c2)cc1OC`: the “hERG current change (%, negative = inhibition) at 1uM” value was 15.7%. For the molecule `COc1cccc(C2Nc3c(F)cc(Br)cc3C3C=CCC32)c1OC` (stereo not drawn), the “hERG current change (%, negative = inhibition) at 1uM” value is 11.5%.

Regarding `CCOC(=O)N=Nc1c(O)n(C)c2ccccc12`, the “hERG current change (%, negative = inhibition) at 1uM” value came to 3.96%.

As to `COc1ccccc1CN1C[C@@H]2C[C@@H](c3ccc4nsnc4c3)N3CCC[C@@]23C1=O`, the “hERG current change (%, negative = inhibition) at 1uM” value was -3.65%.

Regarding `CC(NC(=O)CCNC(=O)c1ccc(Br)cc1)c1ccc(S(N)(=O)=O)cc1` (stereo not drawn), the “hERG current change (%, negative = inhibition) at 1uM” value is 16.1%. As for `COc1cccc(C(C(=O)NC2CCCC2)N(Cc2ccccc2OC)C(=O)c2ccco2)c1` (stereo not drawn), the “hERG current change (%, negative = inhibition) at 1uM” value is reported as 6.31%. Turning to `O=C(/C=C/c1ccc(Br)cc1)NC(=S)N1C[C@H]2C[C@H](C1)c1cccc(=O)n1C2`, the “hERG current change (%, negative = inhibition) at 1uM” value is reported as -21%.

`CN(C)c1ccc(NC(=O)c2ccc(N3CCOCC3)nc2)cc1`: the “hERG current change (%, negative = inhibition) at 1uM” value is recorded as 4.43%. The same measure for `CCOC(=O)[C@@H]1[C@H]2COc3ccccc3[C@@H]2N2C(=O)N(c3cccc(Cl)c3)C(=O)[C@]12C`: -0.332%; for `CC1=CC(C)(C)[N+](C)(C)c2ccccc21.[I-]`: 17.4%. As for `COC(=O)C1CCN(C(=O)c2cc(S(=O)(=O)N3CCCCC3)ccc2Cl)CC1`, the “hERG current change (%, negative = inhibition) at 1uM” value was 8.73%. Regarding `O=S1(=O)NC(=NC2CCCCCC2)c2ccccc21`, the “hERG current change (%, negative = inhibition) at 1uM” value was determined as 3.16%. For `CCOC(=O)CC(=O)c1sc2c(c1N)c(=O)[nH]c(=O)n2-c1ccc(OC)cc1`, the “hERG current change (%, negative = inhibition) at 1uM” value amounted to 13.8%. Consider `Cc1ccc(S(=O)(=O)N2CCOCC2)cc1-c1n[nH]c(=S)n1-c1ccccc1`, for which the “hERG current change (%, negative = inhibition) at 1uM” value stood at 12.4%. As for `CC(=O)Oc1ccc2c(c1)cc(C)n2C`, the “hERG current change (%, negative = inhibition) at 1uM” value was determined as 13.4%.

In the case of `Cc1ccc(C)c(NC(=O)COC(=O)CNC(=O)C2CCCCC2)c1`, the “hERG current change (%, negative = inhibition) at 1uM” value is on record as 0.643%.

As for `Cc1cc(C(=O)CSc2nnc(C3CC3)n2C2CC2)c(C)n1C(C)C`, the “hERG current change (%, negative = inhibition) at 1uM” value is 11.6%. The same measure for `Cn1c(/C=C/c2ccccc2[N+](=O)[O-])nc2ccccc2c1=O`: 6.82%; for `Cc1c(Cl)cccc1NC(=O)CSc1sc2c(O)cc(=O)[nH]c2c1C#N`: 2.77%; for `CCOC(=O)c1sc(NC(=S)NC(=O)c2ccccc2)nc1C`: 14.2%. The same measure for `COCCNCC(=O)N1CCCCCC1.O=C(O)C(=O)O`: 1.18%; for `Cc1ccc(CSc2nnc(-c3ccncc3)n2CC2CCCO2)cc1` (stereo not drawn): 10.8%; for `Oc1ccc2ccccc2c1CNc1ccccn1`: 15.6%.

In the case of `Cn1c(O)c(C=NC2CC3CCC2(C)C3(C)C)c(=O)[nH]c1=O` (stereo not drawn), the “hERG current change (%, negative = inhibition) at 1uM” value stood at 8.6%. For `CCCC1C2C(=O)N(c3ccccc3OCC)C(=O)C2ON1c1ccccc1` (stereo not drawn), the “hERG current change (%, negative = inhibition) at 1uM” value is given as 13.6%. For the molecule `COc1cc(OC)cc(C(C(=O)NC2CCCCC2)N(C(=O)c2ccno2)c2ccccc2)c1` (stereo not drawn), the “hERG current change (%, negative = inhibition) at 1uM” value worked out at 12.8%. With `CC(C)(C)NC(=O)CN(C(=O)C(=O)Nc1ccc2c(c1)OCCO2)C1CCCC1`, the “hERG current change (%, negative = inhibition) at 1uM” value worked out at 9.58%. Next, `CCn1c(SCC(=O)Nc2ccc(C(C)=O)cc2)nc2nc3c(cc2c1=O)COC(C)(C)C3`: 14.1%; `Cc1ccc(C)c(S(=O)(=O)N2CCCCC2CCNC(=O)C(=O)NCc2ccco2)c1` (stereo not drawn): 1.99%. As to `C/C(=N\NC(=O)c1nnn(-c2nonc2N)c1CN(C)c1ccccc1)c1cccc(O)c1`, the “hERG current change (%, negative = inhibition) at 1uM” value was determined as 18.1%. Regarding `O=C(COC(=O)c1ccc(Cl)c([N+](=O)[O-])c1)Nc1ccccc1OC(F)F`, the “hERG current change (%, negative = inhibition) at 1uM” value came out at 5.85%. Next, `COc1ccc(OC)c(C2c3[nH]c4ccccc4c3C[C@H]3C(=O)N(CCCOC(C)C)CC(=O)N23)c1` (stereo partly drawn): -1.74%. With `CCOC(=O)c1cc(C(C)C)sc1NC(=O)COC(=O)c1nccnc1N`, the “hERG current change (%, negative = inhibition) at 1uM” value is -7.12%.

As to `COc1ccc(CCNC(=O)CCN2C(=O)COc3ccc(C)cc32)cc1OC`, the “hERG current change (%, negative = inhibition) at 1uM” value is 0.774%. Consider `COCCN(C(=O)c1csnn1)C(C(=O)NC1CCCCC1)c1ccccc1` (stereo not drawn), for which the “hERG current change (%, negative = inhibition) at 1uM” value was found to be 1.22%. For the molecule `CCOC(=O)c1csc(NC(=O)c2ccccc2)n1`, the “hERG current change (%, negative = inhibition) at 1uM” value turned out to be 0.697%. Next, `O=C(c1ccc(Cl)c(S(=O)(=O)N2CCCCCC2)c1)N1CCOCC1`: 12.7%; `CC1=C(C/C(C)=C/c2ccccc2)/C(=C/CO)[C@H](O)[C@](C)(O)C12CC2`: 16.9%; `Cc1ccc(C)c(N2CCN(S(=O)(=O)c3ccc4c(c3)OCCO4)CC2)c1`: 12.4%.

In the case of `Cc1ccc(NC(=O)Cn2c(=O)c(C)nc3ccccc32)cc1`, the “hERG current change (%, negative = inhibition) at 1uM” value was 2.75%.

Turning to `COc1ccc(NC2=CC(c3ccc(OC)cc3)N(c3ccc(OC)cc3)C2=O)cc1` (stereo not drawn), the “hERG current change (%, negative = inhibition) at 1uM” value came to 9.17%.

Regarding `CNc1nc2c(C)cccn2c(=O)c1C=Nc1ccc(OC)cc1`, the “hERG current change (%, negative = inhibition) at 1uM” value is listed as 9.48%. As to `O=S(=O)(Nc1nc2ccccc2nc1NCC1CCCO1)c1ccccc1` (stereo not drawn), the “hERG current change (%, negative = inhibition) at 1uM” value came out at 11.7%. For the molecule `Cc1ccc(C(=O)COC(=O)CCC(=O)Nc2cc(Cl)ccc2Cl)cc1[N+](=O)[O-]`, the “hERG current change (%, negative = inhibition) at 1uM” value amounted to 6.55%. As to `O=C(c1ccco1)N1CCN(C(=O)N2CCCCC2)CC1`, the “hERG current change (%, negative = inhibition) at 1uM” value was determined as 14.7%. Regarding `COc1ccc(NC(=O)CSc2ccc3nnc(CCNC(=O)c4ccccc4)n3n2)cc1OC`, the “hERG current change (%, negative = inhibition) at 1uM” value was determined as 10.8%.

Take `Cc1ccc(C(=O)NNC(=O)c2cc3cc4ccccc4nc3s2)cc1`: the “hERG current change (%, negative = inhibition) at 1uM” value was found to be 4.48%. Next, `Cc1nnc(SCc2ccccc2Cl)n1CC1CCCO1` (stereo not drawn): -2.69%; `O=C(CN(Cc1ccc2c(c1)OCO2)C(=O)CNS(=O)(=O)c1ccccc1)NCc1ccco1`: 0.375%. Regarding `CC(C)(C(=O)Nc1nccs1)c1ccccc1`, the “hERG current change (%, negative = inhibition) at 1uM” value was determined as 0.971%. In the case of `CCC(CC)Nc1ccc(C(CC(N)=O)NC(=O)c2ccccc2)cc1[N+](=O)[O-]` (stereo not drawn), the “hERG current change (%, negative = inhibition) at 1uM” value is 8.95%. Next, `Cc1ccc([N+](=O)[O-])cc1NC(=O)CSc1n[nH]c(-c2cccnc2)n1`: 7.75%. As for `COc1cc(/C=C(\C#N)C(=O)NCC2CCCO2)ccc1OC(=O)c1ccco1` (stereo not drawn), the “hERG current change (%, negative = inhibition) at 1uM” value was found to be 13.1%.

`CCc1nn(CC(=O)NCCCN(CC)CC)c(=O)c2cc3sc(C)cc3n12`: the “hERG current change (%, negative = inhibition) at 1uM” value is 11.1%.

In the case of `CC(=O)c1ccc(N2CCN(C(=O)C3CCCN3S(=O)(=O)c3cccc4nsnc34)CC2)cc1` (stereo not drawn), the “hERG current change (%, negative = inhibition) at 1uM” value came out at 14.6%.

Take `Oc1c(Br)cc(Br)cc1/C=N/c1nc2c(s1)CCCC2`: the “hERG current change (%, negative = inhibition) at 1uM” value is listed as 0.415%.

For `O=C1OC2(c3ccccc31)c1cc(I)c(O)c(I)c1Oc1c2cc(I)c(O)c1I`, the “hERG current change (%, negative = inhibition) at 1uM” value came out at 8.02%.

As for `CCCCN1C(=O)C(=O)N(CC(=O)NC2CCCc3ccccc32)C1=O` (stereo not drawn), the “hERG current change (%, negative = inhibition) at 1uM” value was 8.35%.
